{"source": "PubChem BioAssay AID1865", "about": "(National Center for Advancing Translational Sciences (NCATS), 2009)", "note": "Out of some 280,000 compounds screened, about 540 (0.19%) were called active. This list was built around the results that the source calls inconclusive (neither active nor inactive); the mix of calls is not that of the screen. The call rests on the fitted dose curve; in most records, active means well fitted activation curve with a large enough effect; inconclusive means small, poorly fitted or top-dose-only effect; inactive means flat fitted curve, though single readings scatter. A potency beside an inconclusive call is a rough fit, not a confirmed value. Potency means the concentration at half of the fitted maximal effect; tags describe the fitted curve by direction and shape.", "data": [{"test": "Quantitative High-Throughput Screen for Regulators of Epigenetic Control; further: nearly all actives have a fitted effect of over 60% in size", "settings": "murine LDR cells, GFP reporter derepression, 30 h; series mostly up to 53.9 µM", "method_in_brief": "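Readout is the number of GFP-expressing murine LDR cells, counted by cytometry following washing. Cells were treated with compound for 30 h at 37 C; the stably integrated CMV-GFP locus is normally silent.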", "values": [{"smiles": "CC(=O)OCC1OC(C#Cc2ccccc2)C=CC1OC(C)=O", "note": "(stereo not given)", "Potency": "inconclusive: 5.62 µM [activator, single point]"}, {"smiles": "C(=C\\c1ccco1)/c1ccc2ccccc2n1", "Potency": "inconclusive: 22.4 µM [activator, single point]"}, {"smiles": "O=C(Nc1ccc(Cl)cc1)Nc1ccccc1Sc1ncc([N+](=O)[O-])s1", "Potency": "inconclusive: 14.1 µM [activator, single point]"}, {"smiles": "Nc1[nH]n2c(=O)cc(-c3ccccc3)nc2c1N=Nc1ccccc1", "Potency": "inactive"}, {"smiles": "CCC(C)Oc1cc(-c2ccnc(Nc3cccc(Cl)c3)n2)ccn1", "note": "(stereo not given)", "Potency": "inconclusive: 20 µM [activator, single point]"}, {"smiles": "COC(=O)c1cc(-c2ccc(C)o2)nc2ccccc12", "Potency": "inconclusive: 25.1 µM [activator, single point]"}, {"smiles": "Cn1c(=O)oc2cc(S(=O)(=O)Nc3cccc4c3CCCC4)ccc21", "Potency": "inconclusive: 17.8 µM [activator, single point]"}, {"smiles": "COc1cccc2c1cc1c(=O)n(CC(=O)N3CCN(c4cccc(C(F)(F)F)c4)CC3)nc(C)n12", "Potency": "inactive"}, {"smiles": "COc1cc(/C=C(\\C#N)c2nc3ccccc3s2)ccc1OCC(=O)Nc1ccccc1", "Potency": "active: 3.16 µM"}, {"smiles": "CC1CCN(CC2CCN(C(=O)NCc3ccc(F)cc3)CC2)CC1", "Potency": "inactive"}, {"smiles": "Cc1cc(/C=C2/C(=O)NN(c3ccccc3)C2=O)c(C)n1-c1cccc(O)c1", "Potency": "inactive"}, {"smiles": "CCc1nc(-c2cc(S(=O)(=O)N3CCN(c4ccc(OC)cc4)CC3)ccc2OC)no1", "Potency": "inconclusive: 31.6 µM [activator, single point]"}, {"smiles": "O=C(NCc1ccccc1)c1nc(S(=O)(=O)Cc2ccc(F)cc2)ncc1Cl", "Potency": "inconclusive: 5.62 µM [activator, single point]"}, {"smiles": "C=CCN1C=CC(=C/C=C(/C#N)C(=O)OCC)C=C1", "Potency": "inconclusive: 20 µM [activator, partial curve, poor fit]"}, {"smiles": "NS(=O)(=O)c1cccc(NC(=S)NC(=O)C23CC4CC(CC(C4)C2)C3)c1", "Potency": "inconclusive: 35.5 µM [activator, single point]"}, {"smiles": "COC(=O)C1=C(C)N(Cc2ccccc2)C2=C3C(=O)N(c4ccccc4)C(=O)C3[C@@](O)(C(=O)OC)C(=O)N2C1c1ccccc1", "note": "(stereo not given in full)", "Potency": "inconclusive: 1.41 µM [activator, single point]"}, {"smiles": "CCN(C(=O)CN1CCN(c2ccc(O)cc2)CC1)c1c(N)n(Cc2ccccc2)c(=O)[nH]c1=O", "Potency": "inactive"}, {"smiles": "Cc1cc(SCC(=O)Nc2cccc(S(=O)(=O)N3CCOCC3)c2)nc2ccccc12", "Potency": "inconclusive: 35.5 µM [activator, single point]"}, {"smiles": "CCN1/C(=C/c2ccc3ccccc3[n+]2CC)C=Cc2ccccc21", "Potency": "inconclusive: 31.6 µM [activator, single point]"}, {"smiles": "Cc1[nH]nc2c1C(c1ccc(-c3ccccc3C#N)o1)C(C#N)=C(N)O2", "note": "(stereo not given)", "Potency": "inconclusive: 35.5 µM [activator, single point]"}, {"smiles": "Cc1cccc(NC(c2ccccc2C)c2ccc3ccc(C)nc3c2O)n1", "note": "(stereo not given)", "Potency": "inactive"}, {"smiles": "Cc1ccc(C)c(NC(=O)c2nn(C)c3c2CS(=O)(=O)c2ccccc2-3)c1", "Potency": "inconclusive: 35.5 µM [activator, single point]"}, {"smiles": "CCc1ccc2nc(SCC(=O)Nc3ccccc3N3CCOCC3)c(C#N)cc2c1", "Potency": "inconclusive: 25.1 µM [activator, single point]"}, {"smiles": "O=C(N/N=C/c1sc2ccccc2c1O)c1cccc2ccccc12", "Potency": "inactive"}, {"smiles": "Clc1ccc(OCc2nc3ccccc3n2Cc2ccccc2)c(Cl)c1", "Potency": "inactive"}, {"smiles": "CC(=O)Nc1cccc(/C(C)=N/NC(=O)c2ccc(Cl)cc2Cl)c1", "Potency": "inactive"}, {"smiles": "Cc1ccc(C)c(NC(=S)c2ccccn2)c1", "Potency": "inconclusive: 31.6 µM [activator, single point]"}, {"smiles": "Cc1ccc(C2CC(c3ccccc3)=NN2C(=S)Nc2ccccc2)o1", "note": "(stereo not given)", "Potency": "inconclusive: 5.62 µM [activator, single point]"}, {"smiles": "CCOc1ccc(C(=O)NCCn2cc(SCC(=O)Nc3ccccc3)c3ccccc32)cc1", "Potency": "inactive"}, {"smiles": "COC(=O)c1cc(NC(=O)c2sc3ncn(Cc4cccc(F)c4)c(=O)c3c2C)cc(C(=O)OC)c1", "Potency": "inconclusive: 20 µM [activator, single point]"}, {"smiles": "CC(C)n1cc(/C=C2/NC(=O)N(c3cccc(Cl)c3)C2=O)c2ccccc21", "Potency": "inconclusive: 35.5 µM [activator, single point]"}, {"smiles": "Cc1ccc(NC(=O)Cn2c(=O)n(Cc3ccc4c(c3)OCO4)c(=O)c3ccccc32)c(C)c1", "Potency": "inconclusive: 25.1 µM [activator, single point]"}, {"smiles": "CC1(C)C2CCC(C2)C1(C)NC(=O)CNCc1cccs1", "note": "(stereo not given)", "Potency": "inactive"}, {"smiles": "Cc1onc(-c2ccccc2)c1C(=O)N(Cc1ccco1)Cc1cccs1", "Potency": "inconclusive: 35.5 µM [activator, single point]"}, {"smiles": "Cc1ccc(Cl)cc1NC1=NC(=S)N(C(C)C)C12CCCCC2", "Potency": "inactive"}, {"smiles": "CCC(O)c1cc2c(cc1NC(=O)c1ccccc1F)OCCO2", "note": "(stereo not given)", "Potency": "inactive"}, {"smiles": "CCOc1ccc(C2C(C(=O)C3CC3)N3C=C(C#N)C=CC3C2(C#N)C#N)cc1", "note": "(stereo not given)", "Potency": "inconclusive: 35.5 µM [activator, single point]"}, {"smiles": "Cc1cc(-c2ccccc2)c2c3c(c(-c4ccccc4)n2n1)c(=O)n(C)c(=O)n3C", "Potency": "inconclusive: 35.5 µM [activator, single point]"}, {"smiles": "Oc1ccc(CN2CCCCC2)c2cccnc12", "Potency": "inconclusive: 22.4 µM [activator, single point]"}, {"smiles": "Cn1c2ccccc2c2c3c(c4c5ccccc5n(CCC#N)c4c21)CNC3=O", "Potency": "inconclusive: 22.4 µM [activator, single point]"}, {"smiles": "CCc1cccc(C)c1NC(=O)Cn1ccn(Cc2ccc(Cl)cc2)c(=O)c1=O", "Potency": "inconclusive: 25.1 µM [activator, single point]"}, {"smiles": "O=C(CSc1nnc(-c2ccc(NS(=O)(=O)c3ccccc3)cc2)o1)NCC1CCCO1", "note": "(stereo not given)", "Potency": "inconclusive: 5.62 µM [activator, single point]"}, {"smiles": "N#CC(C(=S)Nc1ccccc1)c1nc2ccccc2[nH]1", "note": "(stereo not given)", "Potency": "inconclusive: 31.6 µM [activator, single point]"}, {"smiles": "CN1CC(=O)N(CC(=O)N2N=C(c3ccc(Cl)cc3)CC2c2ccco2)C1=O", "note": "(stereo not given)", "Potency": "inconclusive: 35.5 µM [activator, single point]"}, {"smiles": "O=C(O)c1ccccc1/C=N/NC(=O)c1cc(-c2ccco2)nc2ccccc12", "Potency": "inactive"}, {"smiles": "COc1cc2[nH]c(=S)n(Cc3ccc(C)cc3)c(=O)c2cc1OC", "Potency": "inconclusive: 35.5 µM [activator, single point]"}, {"smiles": "CCCn1c(=O)sc2cc(NC(=O)c3ccccc3OCC)ccc21", "Potency": "inconclusive: 35.5 µM [activator, single point]"}, {"smiles": "COc1ccccc1OCCn1cc(/C=C(\\C#N)C(=O)NCc2ccco2)c2ccccc21", "Potency": "inconclusive: 35.5 µM [activator, single point]"}, {"smiles": "COC(=O)c1cn(CC(=O)Nc2ccc(F)cc2)c2ccccc12", "Potency": "inconclusive: 6.31 µM [activator, single point]"}, {"smiles": "CCCOc1cccc(C(=O)Nc2ccc(-c3nc4ccccc4s3)c(Cl)c2)c1", "Potency": "inactive"}, {"smiles": "O=S1(=O)Nc2c(ccc3cccnc23)-c2ccccc21", "Potency": "inconclusive: 5.01 µM [activator, single point]"}, {"smiles": "COc1ccc(C(=O)/C=C/c2ccc(OC)c(CN3CCOCC3)c2)cc1", "Potency": "inconclusive: 20 µM [activator, single point]"}, {"smiles": "Cc1cc(C)cc(NC(=O)CSc2nncn3c2cc2occc23)c1", "Potency": "inconclusive: 15.8 µM [activator, partial curve]"}, {"smiles": "Oc1ccc(CN2CCc3ccccc3C2)c2cccnc12", "Potency": "active: 3.55 µM"}, {"smiles": "COc1ccccc1C1C2=C(N=c3s/c(=C/c4cccc(OCC(=O)O)c4)c(=O)n31)c1ccccc1CC2", "note": "(stereo not given)", "Potency": "inactive"}, {"smiles": "Cc1cccc2c1-c1sc(C(=O)NCCc3ccc(Cl)cc3)cc1CO2", "Potency": "inactive"}, {"smiles": "CCOC(=O)C1(Cc2ccccc2)CCCN(Cc2ccccn2)C1", "note": "(stereo not given)", "Potency": "inactive"}, {"smiles": "COC(=O)c1nc(Cl)c(Cl)c(N)c1Cl", "Potency": "inactive"}, {"smiles": "Cc1ccc(NC(=S)NNC(C)(C)C)cc1", "Potency": "inconclusive: 22.4 µM [activator, single point]"}, {"smiles": "CCN(CC)c1ccc2cc(/C(N)=N/NC(=O)c3cccs3)c(=O)oc2c1", "Potency": "active: 6.31 µM"}, {"smiles": "CCN(CC)CCNC(=O)c1ccccn1", "Potency": "inactive"}, {"smiles": "COc1ccc(N(C(=O)COc2c(C)cccc2C)S(=O)(=O)c2ccc(Cl)cc2)cc1", "Potency": "inactive"}, {"smiles": "COc1cccc(-n2c(=O)c3sc4ccccc4c3n(CC(=O)Nc3ccc(F)cc3F)c2=O)c1", "Potency": "inconclusive: 35.5 µM [activator, single point]"}, {"smiles": "N#C/C(=C\\c1ccc(N2CCOCC2)o1)C(=O)Nc1ccc(O)cc1", "Potency": "inconclusive: 15.8 µM [activator, single point]"}, {"smiles": "CCOc1cc(N(CC)CC)ccc1/C=C(/C#N)c1nc2ccccc2[nH]1", "Potency": "active: 7.94 µM"}, {"smiles": "CCN1C(=O)/C(=C2/SC(C)=C(C)N2CC)SC1=S", "Potency": "inconclusive: 0.126 µM [activator, full curve, poor fit]"}, {"smiles": "CC1=C(c2ccc(C)cc2)S(=O)(=O)N=C1N1CCN(c2ccccc2)CC1", "Potency": "inactive"}, {"smiles": "CNS(=O)(=O)c1cn(CC(=O)N2CCN(c3ccc(OC)cc3)CC2)cc1S(=O)(=O)NC", "Potency": "inconclusive: 5.62 µM [activator, single point]"}, {"smiles": "O=C(COc1ccccc1)N(Cc1cccnc1)c1nc2ccc(Cl)cc2s1", "Potency": "inconclusive: 35.5 µM [activator, single point]"}, {"smiles": "CC1=CC(C)(C)N2C(=O)C(=Nc3ccc(O)cc3)c3cccc1c32", "Potency": "inconclusive: 22.4 µM [activator, single point]"}]}]}
